The campaign covered roughly 45,000 compounds. About 200 (0.44%) were called active. Another 7% or so got no clear call; they are omitted. Calls come from the whole dose curve; as a rule, active = well fitted activation curve with a large enough effect; inconclusive = small, poorly fitted or top-dose-only effect; inactive = no such curve, though single readings can be large or run the other way. This is one part of the list.
test: qHTS of TDP-43 Inhibitors: NCGC Sytravon Library Screen; conditions: yeast TDP-43 toxicity rescue, BacTiter-Glo growth, 24 h; series mostly up to 46.1 µM; growth rescue (activation): at the top concentration; note: 0% is about no effect; nearly all actives have a fitted effect of over 55% in size
In short: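 TDP-43-expressing yeast, pregrown in raffinose, seeded at OD600 0.02 in galactose medium with compound for 24 hr at 30 deg C. Growth read by BacTiter-Glo luminescence, so rescue of toxicity appears as activation.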

Row | Compound | growth rescue (activation)
1 | COc1cccc2cc(C(C)N(CCCN3CCOCC3)C(=S)Nc3ccc(C)c(C)c3)oc12 (configuration not stated) | inactive: 5.71%
2 | Cc1cc2nc(-c3cccc(NC(=O)c4cccc5ccccc45)c3)oc2cc1C | inactive: 1.07%
3 | CCCCOc1ccc2c(c1)/C(=C(\C(Cl)=C(Cl)Cl)[N+](=O)[O-])N2 | inactive: 1.66%
4 | O=C(CSCc1ccc(Br)cc1)NC1CC1 | inactive: 14.9%
5 | C/C=C/c1ccc(OCC(=O)O)c(OC)c1 | inactive: 0.147%
6 | COCCNC(=O)C1(C)CCCN(C(=O)c2cccc(C(F)(F)F)c2)C1 (configuration not stated) | inactive: -14.6%
7 | CCOc1ccc(C(=O)N2CCN(c3cnn(-c4ccccc4)c(=O)c3Cl)CC2)cc1 | inactive: -16.9%
8 | CC(=O)Nc1ccc(NC(=O)C2CCN(c3ccc(C(F)(F)F)cn3)CC2)cc1 | inactive: 10.7%
9 | COC(c1ccccc1)c1nnc(CCC(=O)N2CCN(CCOc3ccccc3)CC2)o1 (configuration not stated) | inactive: 13.8%
10 | COc1ccc(OCC(=O)N2N=C(C)CC2(O)C(F)(F)F)cc1 (configuration not stated) | inactive: 15.2%
11 | Cc1ccc(-n2ncc3c2CCCC3NC(=O)CCc2cnccn2)cc1C (configuration not stated) | inactive: 28.7%
12 | CCOC(=O)c1c(NC(=O)CN2CCN(C(=O)C3CCCO3)CC2)sc(C)c1C (configuration not stated) | inactive: -3.13%
13 | CCOc1ccc(C(=O)NC(=S)N2CCN(c3ccc(C(F)(F)F)cc3[N+](=O)[O-])CC2)cc1 | inactive: 20.2%
14 | CCCNC(=O)C1(C)CCCN(C(=O)c2cc(C)nn2C(C)(C)C)C1 (configuration not stated) | inactive: -4.51%
15 | O=C(COc1ccc(Cl)cc1Cl)NCC1(N2CCOCC2)CCCCC1 | inactive: -9.31%
16 | COc1ccc(C(=O)NNC(=O)CSc2nnc(-c3cccnc3)n2C)cc1 | inactive: 10%
17 | COc1ccc(CCNC(=O)Nc2nnc([C@@H]3C[C@H](O)[C@@H](CO)O3)s2)cc1OC | inactive: -10.8%
18 | CCCC(C(=O)NC1CCCC1)N(C(=O)c1snc(C(N)=O)c1N)c1ccc(F)cc1 (configuration not stated) | inactive: 0.565%
19 | OCCC1CN(Cc2cccn2-c2ncccn2)CCN1Cc1ccc(F)cc1 (configuration not stated) | inactive: 11.5%
20 | CC(=O)c1ccc(NC(=O)C(C)NCc2ccccc2Cl)cc1 (configuration not stated) | inactive: 8.19%
21 | CC(=O)c1ccc(NC(=O)Cc2ccsc2)cc1 | inactive: 15.2%
22 | O=C(/C=C/c1cccc(Cl)c1)Nc1ncccn1 | inactive: -1.07%

Row | Compound | growth rescue (activation)
23 | COc1ccc(CCNC(=O)c2ccc(-c3ccc([N+](=O)[O-])cc3)o2)cc1OC | inactive: 11.1%
24 | COCCn1c(C)cc(C(=O)CSc2nc3ccccc3c(=O)n2C(C)COC)c1C (configuration not stated) | inactive: -12.9%
25 | COc1ccc(-c2nnc(SCC(=O)c3ccco3)n2-c2ccccc2)cc1 | inactive: 26.9%
26 | Cc1ccc(O)c(NS(=O)(=O)c2cccc3nsnc23)c1 | inactive: 28.7%
27 | CCN1CCSc2ccc(C(=O)NCc3ccc(OC(C)C)cc3)cc21 | inactive: 8.04%
28 | COc1cccc(NC(=S)N/N=C2\CC3CCC2(C)C3(C)C)c1 (configuration not stated) | inactive: 26.6%
29 | O=C(CCc1nc(-c2cccs2)no1)Nc1cnc2ccccc2c1 | inactive: 10.9%
30 | CS(=O)(=O)N(CC(=O)NCc1ccco1)c1ccc(OCc2ccccc2)cc1 | inactive: -6.14%
31 | CC(O)CNc1nc2sc3c(c2c(=O)n1CCc1ccccc1)CCCCC3 (configuration not stated) | inactive: -15.1%
32 | CCCCN1C(=O)c2ccc(C(=O)N(C)CC(=O)Nc3ccc(OCC)c(OCC)c3)cc2C1=O | inactive: 22.6%
33 | O=C(Nc1cccc(F)c1)NC1(C(=O)NCC2CCCO2)CCCCC1 (configuration not stated) | inactive: 11.3%
34 | COCCCNc1nc2nonc2nc1N1CCN(C2CCCC2)CC1 | inactive: 2.93%
35 | COc1ccc(-n2nc(C(=O)NCC(=O)NCc3ccc(F)cc3)c3ccccc3c2=O)cc1OC | inactive: -3.69%
36 | Cc1cccn2c(=O)c3cc(C(=O)NCC4CCCO4)c(=N)n(CCN4CCOCC4)c3nc12 (configuration not stated) | inactive: 23%
37 | Clc1ccc(C2=NN(c3ccccc3)C(c3ccco3)C2)cc1 (configuration not stated) | inactive: 15.3%
38 | CCc1ccc(CN2CCC(CO)(CC3CCCCO3)CC2)o1 (configuration not stated) | inactive: 10.8%
39 | Cc1cccc(NC(=O)CSc2nc3c(c(=O)[nH]2)CCC3)c1C | inactive: 4.62%
40 | Cc1ccc2c(COC(=O)CC3Sc4ccccc4NC3=O)cc(=O)oc2c1C (configuration not stated) | inactive: 7.53%
41 | Cc1ccc(-c2nnn(CC(=O)NC(=O)NC3CCCCC3)n2)cc1 | inactive: 23.5%
42 | CCn1c(C)nnc1SCC(=O)Nc1ccc(N2CCOCC2)cc1 | inactive: -6.85%
43 | Cc1ccc(-n2cccn2)c(CN2CCCC(C(=O)c3ccc4c(c3)OCO4)C2)c1 (configuration not stated) | inactive: -12.1%
44 | O=C(O)C1CCCCC1C(=O)N1CCCC1 (configuration not stated) | inactive: 5.63%

Row | Compound | growth rescue (activation)
45 | COc1ccc(OCC(=O)Nc2ccc3oc(-c4ccncc4)nc3c2)cc1 | inactive: 3.06%
46 | COc1ccc(-c2nnc(SCC(=O)NNC(=O)c3ccc(C)cc3)o2)cc1 | inactive: 12.5%
47 | Cc1ccccc1Oc1nc2ccccn2c(=O)c1/C=C(\C#N)c1nc2ccccc2[nH]1 | inactive: 8.81%
48 | CN(C)c1ccc(NC(=O)CN2CCc3ccccc3C2)cc1 | inactive: 12.8%
49 | N#CCCN(C(=O)CN1CCN(S(=O)(=O)c2ccc(Cl)s2)CC1)c1ccc(F)cc1 | inactive: 15.1%
50 | CCOc1ccc(OCc2ccc(C(=O)NN=Cc3ccc[nH]3)cc2)cc1 | inactive: 9.74%
51 | CCOc1ccccc1NC(=O)C(OC(=O)c1ccccc1)c1ccccc1 (configuration not stated) | inactive: 17.1%
52 | Cc1cc(NC(=O)COC(=O)C2COc3ccccc3O2)no1 (configuration not stated) | inactive: 16.8%
53 | O=[N+]([O-])c1ccc(CSC2=NCCS2)cc1 | inactive: 27.6%
54 | COC(=O)C(C)NC(=O)COc1ccc2ccccc2c1 (configuration not stated) | inactive: -17.5%
55 | COc1cc(C)c(COc2ncnc3ccccc23)cc1OC | inactive: -3.53%
56 | COc1cc2c(cc1NC(=S)NC(=O)/C=C/c1ccco1)oc1ccccc12 | inactive: -1.45%
57 | COc1ccc(/C(O)=C2/C(=O)C(=O)N(c3ncccn3)C2c2ccc(F)cc2)cc1 (configuration not stated) | inactive: -10.3%
58 | COc1cc(NC(=O)CCc2c(C)[nH]c(=O)c(C#N)c2C)cc(OC)c1 | inactive: 7.45%
59 | CCN1CCN(C(=O)c2ccc(CN(c3ccccc3)S(=O)(=O)c3ccccc3)cc2)CC1 | inactive: 9.02%
60 | COc1ccc(-c2csc(NC(=O)C(CC(=O)O)N3CCOCC3)n2)cc1 (configuration not stated) | inactive: 14.5%
61 | COc1ccc(CN2CCCC(CNC(=O)c3ccc(F)cc3)C2)cc1OC (configuration not stated) | inactive: 2.33%
62 | c1ccc2c(c1)COC(CNC1CCCCC1)OC2 | inactive: -12.2%
63 | O=C(CSc1nnc2c(n1)[nH]c1ccccc12)Nc1ccc(N2CCOCC2)cc1 | inactive: 6.56%
64 | CCc1ccccc1NC(=O)C1CCN(C(=O)c2cccs2)CC1 | inactive: 5.98%
65 | Cc1cc(C(=O)Nc2ccccc2C(=O)N2CCCCC2)ccc1[N+](=O)[O-] | inactive: -3.37%
66 | Nc1c2c(nn1-c1ccccc1)CCC2 | inactive: -35.7%

Row | Compound | growth rescue (activation)
67 | Cc1cc(NC(=O)Cn2cnc3sc(C)c(C)c3c2=O)no1 | inactive: -1.69%
68 | CC(=O)Nc1ccc(C(=O)OCC(=O)N2CCCC2=O)cc1 | inactive: 4.98%
69 | O=C(N/N=C/c1ccc(OC(F)F)cc1)c1cc[n+]([O-])cc1 | inactive: 1.92%
70 | Cc1ccc(C(=O)NC(=S)Nc2ccc(N3CCOCC3)cc2)cc1 | inactive: 4.79%
71 | COc1ccc2nc(C)cc(SCC(=O)N/N=C/c3c(OC)ccc4ccccc34)c2c1 | inactive: -2.01%
72 | Cc1cc(N2CCN(C)CC2)nc2ccc(NC(=S)N3CCCCC3)cc12 | inactive: -16.3%
73 | CC(C)Oc1ccc(C(=O)Nc2cccc3cccnc23)cc1 | inactive: -7.85%
74 | COC(=O)CCC(=O)Nc1cc(S(=O)(=O)Nc2ccc(Cl)cc2)ccc1N1CCOCC1 | inactive: -5.54%
75 | Cc1c(CN2CCC(CO)(CCOc3ccccc3)CC2)[nH]c2ccc(Cl)cc12 | inactive: -2.2%
76 | CC(C)CCNC(=O)C1CCC(=O)N1CCc1ccccc1 (configuration not stated) | inactive: -9.15%
77 | CCOc1c(O)ccc(/C=C2\SC(=S)NC2=O)c1[N+](=O)[O-] | inactive: -5.97%
78 | COc1ccc(NC(=O)c2cc([N+](=O)[O-])ccc2N2CCCCC2)cc1 | inactive: -2.58%
79 | O=C(NCc1ccccc1OC(F)(F)F)C1CCC(=O)N(Cc2cccc(F)c2)C1 (configuration not stated) | inactive: -5.95%
80 | COCC(=O)Nc1cc(C(=O)OC)cc(C(=O)OC)c1 | inactive: -1.46%
81 | CN1CCN(CC(=O)Nc2nc(-c3ccccc3)cs2)CC1 | inactive: 27.7%
82 | Cc1ccc(/C=C/C(=O)OCC(=O)NCCc2ccc(S(N)(=O)=O)cc2)o1 | inactive: 1.25%
83 | Cc1nn(-c2ccccc2)c(C)c1N | inactive: 3.51%
84 | O=[N+]([O-])c1ccc(/C([O-])=C(/C(=S)NCc2ccco2)[n+]2ccccc2)cc1 | inactive: -3.55%
85 | O=C(/C=C/c1ccc(F)cc1)c1ccc(N2CCOCC2)cc1 | inactive: 12.3%
86 | COc1ccc(C2c3c(oc4ccccc4c3=O)C(=O)N2CCN2CCOCC2)cc1OC (configuration not stated) | inactive: 0.997%
87 | Cc1noc(C)c1COC(=O)c1ccccc1NC(=O)c1ccco1 | inactive: 26.6%
88 | COc1ccc(/C(N)=N/O)cc1O | inactive: -3.41%

Row | Compound | growth rescue (activation)
89 | COC(=O)[C@H](CC(C)C)NC(=O)NCCCc1ccccc1 | inactive: 10.7%
90 | CN(CC(=O)N1CCCCC1)S(=O)(=O)c1ccc(Cl)cc1 | inactive: -5.07%
91 | COc1cccc(C(=O)Oc2ccc(/C=N/NC(=O)c3ccncc3)cc2OC)c1 | inactive: 3.45%
92 | COC(=O)c1c(NC(C)=O)sc(C(=O)N2CCOCC2)c1C | inactive: 9.44%
93 | Cc1ccc(OCC(=O)N/N=C\c2ccc(C)o2)c([N+](=O)[O-])c1 | inactive: 2.11%
94 | CC(=O)Nc1cccc(-c2cc(NC(C)=O)c3ncc(-c4cccc(C(C)=O)c4)n3c2)c1 | inactive: 1.97%
95 | CCC(=O)NC(=S)Nc1ccc(NC(=O)c2ccc([N+](=O)[O-])cc2)cc1 | inactive: 8.6%
96 | COc1cccc(C(=O)/C=C/Nc2ccc(S(=O)(=O)Nc3cc(OC)nc(OC)n3)cc2)c1 | inactive: -9.8%
97 | Cc1nn(C)cc1S(=O)(=O)Nc1cccc(Cl)c1 | inactive: 11.6%
98 | CN(C)c1ncnc2c1ncn2[C@H]1CN(Cc2ccncc2)C[C@@H](CO)O1 | inactive: -6.46%
99 | O=C1NC(=Nc2ccc(O)cc2)S/C1=C/c1ccco1 | inactive: 5.76%
100 | COc1ccc(C)cc1S(=O)(=O)Nc1cccc(SC)c1 | inactive: 21.1%
101 | Cc1nc2c(OCc3ccc(C(F)(F)F)cc3)cccn2c1N(C)CC1CC1 | inactive: 2.16%
102 | COc1ccccc1CN(C)CC(=O)Nc1ccc(Cl)cc1C(F)(F)F | inactive: -10.1%
103 | CCCOc1ccc2c(c1)C(=NN=C(N)N)c1cc(OCCC)ccc1-2 | inactive: -7.07%
104 | Cc1ccc(NC(=O)c2ccc3c(c2)C(=O)N(CC2CCCO2)C3=O)cc1C (configuration not stated) | inactive: 21.6%
105 | O=C(O)CC1Sc2nnc(COc3ccc(Cl)cc3)n2N=C1c1ccccc1 (configuration not stated) | inactive: 10.9%
106 | Cc1cnc(NC(=O)c2ccccn2)s1 | inactive: -1.58%
107 | COc1cc(OC)c(OC)cc1/C=C/c1cc(C(F)(F)F)[nH]c(=O)n1 | inactive: 17.1%
